Numbering of substitutions follows the chain as printed.
B1: Antibody 2-7: masked Antibody 2-6: mask CPFPALELC, cleavable peptide VPLSLY; SEQ ID NO: 424 and 421 (protein)
light: ACPFPALELCGGSGGSVPLSLYSGGEIVLTQSPDFQSVTPKEKVTITCSANSALSYMYWYQQKPDQSPKLWVHGTSNLASGVPSRFSGSGSGTDFTLTINSLEAEDAATYYCHHWSNTQWTFGGGTKVEIKRTVAAPSVFIFPPSDEQLKSGTASVVCLLNNFYPREAKVQWKVDNALQSGNSQESVTEQDSKDSTYSLSSTLTLSKADYEKHKVYACEVTHQGLSSPVTKSFNRGEC
heavy: QVQLVQSGAEVKKPGSSVKVSCKASGYTFTNYFMNWVRQAPGQGLEWMGRVDPEQGRADYAEKFKKRVTITADKSTSTAYMELSSLRSEDTAVYYCARRAMDNYGFAYWGQGTLVTVSS[human IgG1 constant region with changes left out here]
B2: Antibody 2-8: masked Antibody 2-6: mask CPFPALELC, cleavable peptide MPYDLYHP; SEQ ID NO: 425 and 421 (protein)
light: ACPFPALELCGGPGSSPMPYDLYHPSGGEIVLTQSPDFQSVTPKEKVTITCSANSALSYMYWYQQKPDQSPKLWVHGTSNLASGVPSRFSGSGSGTDFTLTINSLEAEDAATYYCHHWSNTQWTFGGGTKVEIKRTVAAPSVFIFPPSDEQLKSGTASVVCLLNNFYPREAKVQWKVDNALQSGNSQESVTEQDSKDSTYSLSSTLTLSKADYEKHKVYACEVTHQGLSSPVTKSFNRGEC
heavy: QVQLVQSGAEVKKPGSSVKVSCKASGYTFTNYFMNWVRQAPGQGLEWMGRVDPEQGRADYAEKFKKRVTITADKSTSTAYMELSSLRSEDTAVYYCARRAMDNYGFAYWGQGTLVTVSS[human IgG1 constant region with changes left out here]
B3: Antibody 2-9: masked Antibody 2-6: mask CPFPALELC, cleavable peptide HEQLTV; SEQ ID NO: 426 and 421 (protein)
light: B1 light with G14S, G15P, S16P, V17H, P18E, L19Q, S20L, L21T, Y22V
heavy: QVQLVQSGAEVKKPGSSVKVSCKASGYTFTNYFMNWVRQAPGQGLEWMGRVDPEQGRADYAEKFKKRVTITADKSTSTAYMELSSLRSEDTAVYYCARRAMDNYGFAYWGQGTLVTVSS[human IgG1 constant region with changes left out here]
B4: Antibody 2-12: masked Antibody 2-6: mask CPFPALELC, cleavable peptide KPILFFRL; SEQ ID NO: 431 and 421 (protein)
light: ACPFPALELCGSPGSPKPILFFRLSGGEIVLTQSPDFQSVTPKEKVTITCSANSALSYMYWYQQKPDQSPKLWVHGTSNLASGVPSRFSGSGSGTDFTLTINSLEAEDAATYYCHHWSNTQWTFGGGTKVEIKRTVAAPSVFIFPPSDEQLKSGTASVVCLLNNFYPREAKVQWKVDNALQSGNSQESVTEQDSKDSTYSLSSTLTLSKADYEKHKVYACEVTHQGLSSPVTKSFNRGEC
heavy: QVQLVQSGAEVKKPGSSVKVSCKASGYTFTNYFMNWVRQAPGQGLEWMGRVDPEQGRADYAEKFKKRVTITADKSTSTAYMELSSLRSEDTAVYYCARRAMDNYGFAYWGQGTLVTVSS[human IgG1 constant region with changes left out here]
B5: Antibody 2-11: masked Antibody 2-6: mask CPFPALELC, cleavable peptide GGIGQLTA; SEQ ID NO: 428 and 421 (protein)
light: ACPFPALELCSSPSPSGGGGIGQLTASGGEIVLTQSPDFQSVTPKEKVTITCSANSALSYMYWYQQKPDQSPKLWVHGTSNLASGVPSRFSGSGSGTDFTLTINSLEAEDAATYYCHHWSNTQWTFGGGTKVEIKRTVAAPSVFIFPPSDEQLKSGTASVVCLLNNFYPREAKVQWKVDNALQSGNSQESVTEQDSKDSTYSLSSTLTLSKADYEKHKVYACEVTHQGLSSPVTKSFNRGEC
heavy: QVQLVQSGAEVKKPGSSVKVSCKASGYTFTNYFMNWVRQAPGQGLEWMGRVDPEQGRADYAEKFKKRVTITADKSTSTAYMELSSLRSEDTAVYYCARRAMDNYGFAYWGQGTLVTVSS[human IgG1 constant region with changes left out here]
B6: Antibody 2-13: masked Antibody 2-6: mask CPFPALELC, cleavable peptide RAAAVKSP; SEQ ID NO: 429 and 421 (protein)
light: ACPFPALELCGGSSPPRAAAVKSPSGGEIVLTQSPDFQSVTPKEKVTITCSANSALSYMYWYQQKPDQSPKLWVHGTSNLASGVPSRFSGSGSGTDFTLTINSLEAEDAATYYCHHWSNTQWTFGGGTKVEIKRTVAAPSVFIFPPSDEQLKSGTASVVCLLNNFYPREAKVQWKVDNALQSGNSQESVTEQDSKDSTYSLSSTLTLSKADYEKHKVYACEVTHQGLSSPVTKSFNRGEC
heavy: QVQLVQSGAEVKKPGSSVKVSCKASGYTFTNYFMNWVRQAPGQGLEWMGRVDPEQGRADYAEKFKKRVTITADKSTSTAYMELSSLRSEDTAVYYCARRAMDNYGFAYWGQGTLVTVSS[human IgG1 constant region with changes left out here]

System: peripheral blood mononuclear cells (PBMCs)
Assay: not given
Type: cell-based, human
Settings: after protease treatment (activated)

Q: For B1, which IL-2 production is on record?
A: at levels similar to the unmasked parental Antibody 2-6

Q: Which IL-2 production does the source give for B2 here?
A: at levels similar to the unmasked parental Antibody 2-6

Q: For B3, which IL-2 production is on record?
A: at levels similar to the unmasked parental Antibody 2-6

Same assay, conditions: non-activated (without exposure to protease); compared to isotype control

Q: With B1 as the molecule, how does the IL-2 production read?
A: did not promote a significant increase in IL-2 production

Q: How did the IL-2 production turn out when B4 was run?
A: significant increase in IL-2 production

Q: How did the IL-2 production turn out when B2 was run?
A: did not promote a significant increase in IL-2 production

Q: With B3 as the molecule, how does the IL-2 production read?
A: did not promote a significant increase in IL-2 production

Q: B5 was tested. Which IL-2 production did it give?
A: did not promote a significant increase in IL-2 production

Q: For B6, which IL-2 production is on record?
A: did not promote a significant increase in IL-2 production

Target: T1, human CTLA4-Fc (Homo sapiens, UniProt P16410)
T1 construct: purchased R&D Systems 7268-CT
Assay: Low density antigen binding ELISA, with or without protease activation
Settings: Table 7, absence of protease; EC50 masked antibody / EC50 Antibody 2-6
Experimental: Masked antibodies were buffer exchanged into MMP cleavage buffer prior to incubation with the protease. For activation, protease (Anaspec, ProsecBio, and R&D Systems) was diluted to 100 ng/μL in MMP cleavage buffer (50 mM Tris pH 8.0, 150 mM NaCl, 10 mM CaCl2). APMA (10 mM in DMSO) was added to a final concentration of 1 mM. The enzyme was incubated at 37° C. for 1 hour. Activated protease was added to the masked antibodies at a ratio of 1:1000 antibody:protease (e.g., 1 ug MMP to 1 mg antibody) or an equal amount of buffer was added to negative control samples. Samples were incubated at 37° C. overnight.
Polystyrene 96-well microplates (Fisher #07-200-591) were coated with 1 μg/mL of human CTLA4-Fc (R&D #7268-CT) per well and stored overnight at 4° C. Plates were washed with 0.05% Tween in TBS (TBS-T), blocked with 1% BSA (Sigma Aldrich #B4287-25G), and washed with TBS-T. Serial dilutions of samples containing anti-CTLA4 antibodies were made in assay buffer (PBS+0.05% Tween+1% BSA), added to plate, and shaken orbitally at 100 RPM at room temperature for one hour. After washing with TBS-T, anti-human Kappa light chain [clone: SB81a]-HRP (Abcam #ab79115) diluted to 1:8000 in assay buffer was applied to the wells and shaken at room temperature for one hour. Plates were washed with TBS-T, HRP substrate (Super Signal Pico Chemiluminescent Substrate, Thermo #37069) was applied to plate, and luminescence was recorded using a spectrophotometer (BioTek). Data was analyzed with GraphPad Prism.
Humanized anti-CTLA4 antibodies were used in low density antigen binding ELISA described in Example 7. For assessing activation of masked activatable forms of the humanized anti-CTLA4 antibodies, recombinant proteases were used as outlined in Example 6.
Serial dilutions of the antibodies were made in assay buffer, added to 96-well microplates coated with human CTLA4-Fc, and shaken at room temperature for one hour. Plates were washed with TBS-T, blocked with BSA, and washed again with TBS-T. The antibodies were added to plate and shaken. After washing, anti-human Kappa light chain (conjugated to HRP) in assay buffer was applied to the wells and shaken at room temperature. Plates were washed again before HRP substrate was added. Luminescence was recorded using a spectrophotometer and data analyzed with GraphPad Prism.
FIG. 10A and FIG. 10B show binding studies with masked and unmasked versions of Antibody 2 in the absence (FIG. 10A) or presence (FIG. 10B) of protease. […] Higher concentrations of antibodies are necessary to show binding as evidenced by the shift to the right of the unmasked Antibody 2-6 and the IgG1 isotype (FIG. 10A). Masked antibodies are considered occluded by masking peptide. The occlusion of each masked antibody is shown in Table 7, below, and is calculated by dividing the EC50 for the masked antibody by the EC50 of the unmasked parental antibody, Antibody 2-6.
Unmasked parental Antibody 2-6 was included as a control and was not exposed to protease. Protease digestion was performed according to the protocol provided in Example 6.
A comparison of the in vitro sensitivity of the cleavable peptide sequences to select proteases is shown as radar plots in FIG. 11A-H. Activation of each antibody by each protease on the radar plot is depicted using a radar plot, where activation is depicted as ranging from 0 (no activation) to 1.0 (full activation). […] The occlusion of each masked antibody is shown in Table 12, below, and is calculated by dividing the EC50 for the masked antibody by the EC50 of the unmasked parental antibody, Antibody 2-6. Binding was conducted according to the protocol provided in Example 7 and Example 8 and proteolytic treatment of the antibodies was conducted to according to the protocol provided in Example 6 and Example 8. A solution of masked anti-CTLA4 antibody (1000 nM) was made in appropriate cleavage buffer. Two antibody samples were aliquoted into two 0.5 mL Eppendorf tubes. […]

Q: B1 was tested. Which Occlusion did it give?
A: 49

Q: How did the Occlusion turn out when B4 was run?
A: 5

Q: B2 was tested. Which Occlusion did it give?
A: 79

Q: How did the Occlusion turn out when B3 was run?
A: 62

Q: With B5 as the molecule, how does the Occlusion read?
A: 51

Q: Which Occlusion does the source give for B6 here?
A: 21

Same assay, conditions: Table 8, activated by protease; 0 (no activation) to 1.0 (full activation)

Q: How did the Activation turn out when B1 was run?
A: 1.00

Q: B4 was tested. Which Activation did it give?
A: 1.03

Q: Which Activation does the source give for B2 here?
A: 1.00

Q: With B3 as the molecule, how does the Activation read?
A: 1.00

Q: With B5 as the molecule, how does the Activation read?
A: 1.00

Q: For B6, which Activation is on record?
A: 1.01

Same assay, conditions: Table 13, Protease +

Q: What does the source list for B1?
A: Activation: 1.0; Occlusion: 0.8

Same assay, conditions: Table 13, Protease −

Q: With B1 as the molecule, how does the Occlusion read?
A: 49

— patent US20220073613A1, “ACTIVATABLE MASKED ANTI-CTLA4 BINDING PROTEINS” (Xilio Development, Inc., priority 2018, published 2022)
